Experimental data taken from patent US4389342A, “Synthetic hormone-like peptides and method for their synthesis” (Perignon Investments, Ltd., priority 1981, dated 1983).
Not every detail of the peptide structures is certain; ends, links or a residue may be inferred. Where a SMILES comes first, the peptide text is derived from it. Where no end group is shown, it is not given here. [ ]: non-standard residue; d: D form. pGlu = O=C1CC[C@@H](C(=O)O)N1

Test system: Chinese hamster ovary cells (CHO)
Test: Effect of the peptide on DNA-synthesis (thymidine incorporation) in CHO cells
Type: cell-based
Details: relative to the peptide isolated and purified from estivating lungfish

Question: With `CC(C)[C@H](NC(=O)[C@H](CCC(N)=O)NC(=O)[C@H](CO)NC(=O)[C@@H](NC(=O)[C@H](CCCNC(=N)N)NC(=O)[C@@H]1CCC(=O)N1)C(C)C)C(=O)NCC(=O)N[C@@H](CO)C(=O)N[C@@H](CCCCN)C(=O)N1CCC[C@H]1C(=O)N[C@@H](CCC(N)=O)C(=O)O` [Run 46] ([pGlu]RVSQVGSKPQ-OH) as the molecule, how does the “Activity on DNA Synthesis (% of activity of natural product)” value read?
Answer: < 10%

Question: `CC(C)[C@H](NC(=O)[C@H](CCC(N)=O)NC(=O)[C@H](CCCCN)NC(=O)[C@@H](NC(=O)[C@H](CCCNC(=N)N)NC(=O)[C@@H]1CCC(=O)N1)C(C)C)C(=O)NCC(=O)N[C@@H](CO)C(=O)N[C@@H](CO)C(=O)N1CCC[C@H]1C(N)=O` [Run 5] ([pGlu]RVKQVGSSP-NH2) was tested. Which “Activity on DNA Synthesis (% of activity of natural product)” value did it give?
Answer: 90%

Question: With `CC(C)[C@H](NC(=O)[C@H](CCC(N)=O)NC(=O)[C@H](CCCCN)NC(=O)[C@@H](NC(=O)[C@H](CCCNC(=N)N)NC(=O)[C@@H]1CCC(=O)N1)C(C)C)C(=O)NCC(=O)N[C@@H](CO)C(=O)N[C@@H](Cc1ccc(O)cc1)C(=O)N1CCC[C@H]1C(=O)N[C@@H](CCC(N)=O)C(=O)O` [Run 10] ([pGlu]RVKQVGSYPQ-OH) as the molecule, how does the “Activity on DNA Synthesis (% of activity of natural product)” value read?
Answer: 50%

Question: With YRVKQVGSSPQ [Run 33] as the molecule, how does the “Activity on DNA Synthesis (% of activity of natural product)” value read?
Answer: 30%

Question: FRVYQVGSSPQ [Run 25] was tested. Which “Activity on DNA Synthesis (% of activity of natural product)” value did it give?
Answer: 40%

Question: Which “Activity on DNA Synthesis (% of activity of natural product)” value does the source give for FRVKQVGSHPQ [Run 28] here?
Answer: 40%

Question: How did the “Activity on DNA Synthesis (% of activity of natural product)” value turn out when `CC(C)[C@H](NC(=O)[C@H](CCCNC(=N)N)NC(=O)[C@@H](N)Cc1c[nH]c2ccccc12)C(=O)N[C@@H](CCCCN)C(=O)O` [Run 61] (H-WRVK-OH) was run?
Answer: < 10%

Question: For `CC(C)[C@H](NC(=O)[C@H](CCC(N)=O)NC(=O)[C@H](CCCCN)NC(=O)[C@@H](NC(=O)[C@H](CCCNC(=N)N)NC(=O)[C@@H]1CCC(=O)N1)C(C)C)C(=O)NCC(=O)N1CCC[C@H]1C(=O)N[C@@H](CO)C(=O)N1CCC[C@H]1C(=O)N[C@@H](CCC(N)=O)C(=O)O` [Run 31] ([pGlu]RVKQVGPSPQ-OH), which “Activity on DNA Synthesis (% of activity of natural product)” value is on record?
Answer: 30%

Question: WRVYQVGSSPQ [Run 55] was tested. Which “Activity on DNA Synthesis (% of activity of natural product)” value did it give?
Answer: < 10%

Question: FRVKQVGSSP-NH2 [Run 12] was tested. Which “Activity on DNA Synthesis (% of activity of natural product)” value did it give?
Answer: 50%
